# Laboratory results reported in the supplement of paper PMC11417369.
# ± gives the standard deviation of the averaged measurements. The list shows a part of the results.
# Test system: PfAP2-EXP AP2 domain (GST-tagged)
# Assay: gcPBM binding intensity (ln(normalized median fluorescence intensity)); higher = stronger DNA binding
# Outline: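 GST-tagged P. falciparum DNA-binding domains, expressed in E. coli (about 25 μg on average), were applied for 1 h to an Agilent 4 × 180k array of primer-extended double-stranded 36-bp intergenic genomic probes plus negative controls. The binding buffer was 1× PBS with 1% milk, 0.2 mg/ml BSA, 0.5% salmon testes DNA and 0.03% Triton X-100. Bound protein was detected with Alexa488 anti-GST antibody and scanned at 488 nm. Binding intensity is the highest Masliner-normalised natural-log median intensity across replicate spots of either probe orientation.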
row,Sequence,gcPBM binding intensity (ln)
1,AAATGAATAAATAAGACACACACGAAAATAAGTAAA [CACACA_site71],9.07 ± 0.56
2,TTTTCTAAATAAATAGTGCATTTATTATATATACAT [GTGCAC_site9766],8.65 ± 0.014
3,TGTTTATTTTTAAAAAGTACATATTTAAAAAACTTC [XGTACX_site271],8.28 ± 0.3
4,CAAAAGAAGGTAAACACACACACACGCATACAAAAA [CACACA_site7724],8.91 ± 0.63
5,ATTTCTCTATCGTAATGTACATAAAAAATGAAAAAA [XGTACX_site1201],8.7 ± 0.38
6,ATAGAATAAAACTATACACACCTATATTTAAACATA [CACACA_site5106],8.46 ± 0.33
7,CAAAACCTTATATGTACACACATATACATCACCCTT [CACACA_site3170],8.64 ± 0.39
8,TATTGTTACTTTATATGTACTAATTAAACATATACA [XGTACX_site6363],8.57 ± 0.37
9,TTGTATTATATTGTATTATGTTTAAATGAAAAAAAA [CACACA_negctrl_site662],8.36 ± 0.52
10,AAAAAAAAAAAAAAAAGTACACAAATTTTAAAAATT [XGTACX_site3006],8.64 ± 0.13
11,AAATATTAGTAACACAGACACACAAAAAAAAAAAAA [CACACA_site2175],8.46 ± 0.59
12,AAAAATACCTTATATATACACACTATGTTTTTCTTT [CACACA_site1192],8.71 ± 0.28
13,AAAAAAAAAAAAAAAACACACATACATACATACATA [CACACA_site6125],8.66 ± 0.22
14,TTTTTTTTTTTTTTTGCACACACCATATTTATAGAA [CACACA_site3310],8.51 ± 0.25
15,AGAAAAGTGATATATACACACTTATATTTATTTATA [CACACA_site7350],8.22 ± 0.35
16,TTAAATGATGTAAACACACACATATACATTATTATA [CACACA_site3162],8.31 ± 0.33
17,TATTGTCTATAATAAACACACAATATTAAAAATATA [CACACA_site6624],8.21 ± 0.45
18,ATCTTTCCTATTTGTAGTACAAAAAAAAAAAAAAAA [XGTACX_site5485],8.44 ± 0.18
19,TTTTATAAGGTGAAAAGTACATATAACTTATTTTAC [XGTACX_site5572],8.36 ± 0.37
20,ACGTGTGATTATAATTGTACTTTAATGTAAGAATGA [XGTACX_site1109],8.55 ± 0.32
21,ATATATATATATATATGTACTTATAATAATATTCAA [XGTACX_site2593],10 ± 0.59
22,AATTTTATTTAATTTTTTTGGGAAATGATAAAATTT [CACACA_negctrl_site934],7.96 ± 0.45

row,Sequence,gcPBM binding intensity (ln)
1,TTATTTTATTTTTTTGTGCACATATATATTTATAAA [GTGCAC_site9615],9.15 ± 0.21
2,ACTTATATATTATGTTGTCCGTCCATTCTCTTTATC [XGTACX_site3769],9.23 ± 0.46
3,TTTTCATTCAATTATATTTATATATATATATATATA [GTGCAC_negctrl_site538],10.2 ± 0.44
4,CAAAATATTTTTATAACACACATATATATAATGTGC [CACACA_site4767],8.58 ± 0.38
5,TACATGTATAAATAAGCACACATGTGGATATGTACA [CACACA_site93],8.96 ± 0.37
6,TACACAAGGGGAAAAATATATATATATATATATATA [TGCATGCA_negctrl_site217],10.2 ± 0.57
7,TAAAAAATTTTATATTCACACACATATATATATATA [CACACA_site8109],10.1 ± 0.31
8,TAAAAGTATATATATACACACATAAATATATATGTA [CACACA_site663],8.37 ± 0.3
9,TTGTGAAATAAAATTTGTACACACATATATATATAT [XGTACX_site1078],10.14 ± 0.092
10,AAAATTTAAAGCATGACACACAATTATATTATGTGC [CACACA_site3435],8.29 ± 0.47
11,TTTTTTTTGGAATTCACACAAATATAACATGGGTAT [CACACA_site5185],8.46 ± 0.38
12,TTCTTTTCTTTAGTAGAATGTAAAAAATATAATCTT [XGTACX_negctrl_site290],8.17 ± 0.51
13,GGAATTGAAAAATCAGCACACACACTAATACATACA [CACACA_site9059],8.76 ± 0.45
14,AAATGGCAATAATGGACACACAAATGTTGTTATATA [CACACA_site2819],8.62 ± 0.35
15,AATAATTGTTAAAGGTGTACAATACCTACATAAGAA [XGTACX_site4215],8.88 ± 0.23
16,AAAAAGGAAATTTACACACACATATAATATACATTA [CACACA_site3296],8.47 ± 0.47
17,ATTTACCAGACCATATGTACATACATAAAACACACA [XGTACX_site3788],9.07 ± 0.59
18,ATATGATTATTATTATATAAATTATAAAGTCTAATA [GTGCAC_negctrl_site586],7.88 ± 0.38
19,GTTCTACAAGCCACTGCATGCTGATATAGAATAAAT [TGCATGCA_site138],9.35 ± 0.34
20,TCATATATCCTTATCACACATATAATAAATTCCCTT [CACACA_site4457],8.53 ± 0.37
21,AATATTTCTCATTTTGTGCACTGAAAAATGTAATAT,8.675 ± 0.021
22,TTCTTTGCTTTTCAAACACACAAAAGTTATTATAGT [CACACA_site6390],8.47 ± 0.4

row,Sequence,gcPBM binding intensity (ln)
1,TCACATTTTGGACACGTGCACATATATTTGATACAT,8.93 ± 0.32
2,AAAATTAATTATTACAAAAATGAAAAGACATATTTT [GTGCAC_negctrl_site735],8.23 ± 0.38
3,ATTTATATATAAATGTGTACATATATATATATAAAC [XGTACX_site7592],8.76 ± 0.3
4,TACCATGTTCAAATTACACACATATAATGCAATATA [CACACA_site7034],8.63 ± 0.3
5,CTGAAATTAACAAAAGTGCATAAAAATAAAAAATAT [GTGCAC_site9652],8.99 ± 0.29
6,ATTGTAAGTAAACACACACACATATATCTGTATTTA [CACACA_site4542],8.42 ± 0.45
7,CAATGCAAGGCTTAAAAAAATGGGCATATTATATAT [GTGCAC_negctrl_site304],8.48 ± 0.61
8,TTTTTTTACAACATTACACACAAATATTCTGGGTTA [CACACA_site3755],8.52 ± 0.43
9,AATATTATATTAAAATGTACAAAAATGAATTACTTT [XGTACX_site1473],8.49 ± 0.38
10,TATATACATATATATATATGTATAGATAGATACATT [CACACA_negctrl_site1511],8.53 ± 0.35
11,TAACCACAATTTTAATGTACATATATATTTATATAT [XGTACX_site8968],8.36 ± 0.3
12,ATTTCTATAAAAATAATCTACATTTTTTTTTTTTTT [CACACA_negctrl_site917],8.09 ± 0.47
13,AATATTTTACAATACACATGCAAATAATATTCTAAA [TGCATGCA_site618],8.63 ± 0.39
14,TTTTGAAAAAATTTTTATAAAAGAATAAAATTATTA [XGTACX_negctrl_site570],8.12 ± 0.4
15,TAAAAATGGAAACACACACACATAAATATATTTTAT [CACACA_site2513],8.79 ± 0.5
16,TCTCATTTTCCCTAAAAAAAAAAATAAATAAAAATA [TGCATGCA_negctrl_site580],8.26 ± 0.43
17,TTTTTCCATATTGTAGCATGCAGTATATATATCATG [TGCATGCA_site530],9.47 ± 0.25
18,ATATTATTTATGTATGCATGCGGCGAAATGGGCTTG [TGCATGCA_site28],9.39 ± 0.33
19,AATGGGTTACACATATGTACATAAAATATAAAAAAT [XGTACX_site3440],8.91 ± 0.51
20,AAAAAAAAAAAAAAAAAAAAAAAAAAAATACGAAAG [GTGCAC_negctrl_site729],8.98 ± 0.028
21,ATATATATATATATATGTACTTAAAAAATATATACA [XGTACX_site8952],10.2 ± 0.53
22,TATTTTTTTTGTGTGTGTCCTCATGTAATACTGCAA [XGTACX_site1380],8.84 ± 0.57

row,Sequence,gcPBM binding intensity (ln)
1,CTTTTTAATTAATACACACACACACGGATATAAATA [CACACA_site7145],8.95 ± 0.49
2,TATATTAAACTTTGCACACATAATTTAACTACAAAG [CACACA_site3441],8.58 ± 0.24
3,AATCATTTATTGATGGTGCAATATACCATCTAATGA [GTGCAC_site9440],8.35 ± 0.014
4,AAAAAAAAAAAACACACACACACACCCAAATATATA [CACACA_site150],8.49 ± 0.61
5,CATAATACATATAACACACACAATTATACATAAAAT [CACACA_site3233],8.92 ± 0.26
6,TTATTAAAAAAAATATGTACTCACAATATAATATAT [XGTACX_site3738],8.3 ± 0.3
7,GAAATTTTTAAAAAGGTGCTTTTAACAAAAATTATT [GTGCAC_site9687],8.54 ± 0.071
8,TTTTTTTTTTCTTGTTGTACTTTTAATAATTCATAT [XGTACX_site4704],8.79 ± 0.42
9,ACCATCCTTAATACTTATTTTTTCACAATTAAGTAA [GTGCAC_negctrl_site269],8.63 ± 0.33
10,TATATATATATAACATGTACATAAAATACATTTATA [XGTACX_site7370],9.7 ± 0.2
11,TTAGCAACTATTACTACACACATTTGTATATAATTT [CACACA_site1591],8.5 ± 0.49
12,AAAAAAAAAAAAAGATGTACATATATTTTTATTATA [XGTACX_site654],8.23 ± 0.4
13,AACCATTCTTCTAATTGTACATTGAAAAATCATGAT [XGTACX_site3854],8.62 ± 0.44
14,AAGGATATAAAAAAACGTACGTACGATAATATAATT [XGTACX_site1292],8.88 ± 0.4
15,AGTATTTTAATTTCAGTGCATTTTATTCTATAATTA,8.71 ± 0.3
16,AAAAAAAAAAAAAATGCATGTGCGTAAATAATAATA [TGCATGCA_site793],8.93 ± 0.4
17,TTTAGGAAAGGCGGCACACATTTATATATTTATTTA [CACACA_site5931],8.28 ± 0.4
18,ATATATATCTATATTTGTACATATTACATTCAAGTT [XGTACX_site1749],8.66 ± 0.37
19,AAGTTTTCTTACAGATGTACTTTTTAAAAATAAACT [XGTACX_site6632],8.8 ± 0.59
20,TATAACTATTTATAATGTACTCATGTATAATTATAT [XGTACX_site7913],8.33 ± 0.44
21,TGCTATAATTTATATACACACAAATATATACTCATA [CACACA_site6111],8.31 ± 0.28
22,TTAATTTATTTATGCACACATATATAATTACACATA [CACACA_site4544],8.525 ± 0.078
